Measured values from PubChem BioAssay AID485281 (National Center for Advancing Translational Sciences (NCATS), 2010).
Hit rate of the full screen: of about 350,000 compounds, about 260 (0.074%) were called active. The inconclusive results got no clear call from the source; some entries with a clear call stand among them for comparison. Calls come from the whole dose curve; as a rule, active = well fitted inhibition curve with a large enough effect; inconclusive = small, poorly fitted or top-dose-only effect; inactive = no such curve, though single readings can be large or run the other way. Potencies of inconclusive entries are doubtful fits and often do not repeat.

Biological target: Ferritin light chain (Equus caballus) (UniProt P02791)
Test: qHTS Assay for Identification of Novel General Anesthetics; note: nearly all actives have a fitted effect of over 20% in size
Conditions: apoferritin/1-aminoanthracene competitive binding, fluorescence; series mostly up to 77.5 µM
In short: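 In PBS, apoferritin at 10 uM is loaded with 1-AMA from a 50% saturated solution. After 10 min of compound exposure at ambient temperature, reduced 535 nm fluorescence indicates probe displacement.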
Potency is the fitted concentration of half-maximal effect; tags give direction and shape of the fitted curve.

UniProt P02791, sequence (P02791 whole entry, looked up): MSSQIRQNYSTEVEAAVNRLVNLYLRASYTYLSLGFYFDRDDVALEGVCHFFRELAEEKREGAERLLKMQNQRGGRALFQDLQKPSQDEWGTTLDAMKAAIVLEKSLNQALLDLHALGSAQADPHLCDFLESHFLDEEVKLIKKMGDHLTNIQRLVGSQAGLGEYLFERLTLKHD

Structure (SMILES)	Potency
Fc1ccccc1N1CCN(c2nnc(C(F)(F)F)c3nnn(Cc4ccccc4)c23)CC1	inactive
Cn1cccc1C(=O)NC(=O)COC(=O)CC12CC3CC(CC(C3)C1)C2	inconclusive: 10 µM [inhibitor, partial curve]
CCCC(=O)NC(=S)Nc1ccccc1F	inconclusive: 35.5 µM [inhibitor, single point]
COc1ccccc1NS(=O)(=O)c1ccc(Br)s1	inconclusive: 22.4 µM [inhibitor, partial curve]
CCOC(=O)c1cc2sccc2n1CCCN1C(=O)c2ccccc2C1=O	inconclusive: 44.7 µM [inhibitor, partial curve, poor fit]
CCCCCNc1nc(-c2ccccc2)cs1	inconclusive: 28.2 µM [inhibitor, partial curve]
CCN(CC)Cc1c(C(=O)N/N=C/c2ccc(C)o2)nnn1-c1nonc1N	inconclusive: 56.2 µM [inhibitor, single point]
CC(C)n1nc(C(=O)Oc2cc(Cl)ccc2Cl)c2ccccc2c1=O	inconclusive: 56.2 µM [inhibitor, single point]
COc1cccc(NC(=O)Cn2c(=O)n(-c3cccc(OC)c3)c(=O)c3sc4ccccc4c32)c1	inactive
CCCCCC/C(=N/O)c1ccccn1	inconclusive: 35.5 µM [inhibitor, partial curve]
Cc1ccc(-n2cc3c(-c4cccc(Br)c4)nnc(C)c3n2)cc1	inconclusive: 12.6 µM [inhibitor, partial curve]
CN1CCN(C(=O)c2c(NC(=O)c3ccco3)sc3c2CCC(C(C)(C)C)C3)CC1 (centres undefined)	inconclusive: 12.6 µM [inhibitor, full curve]
C=CCOc1ccccc1C1C2=C(CC(C)(C)CC2=O)Nc2c1c(=O)n(C)c(=O)n2C (centres undefined)	inactive
Oc1ccc(Nc2nc(-c3ccc(O)cc3)cs2)cc1	inactive
CCCC1CC(c2csc(N)n2)CCO1 (centres undefined)	inconclusive: 50.1 µM [inhibitor, single point]
CCc1ccc(NC(=O)C(=O)NCCc2sc(-c3ccc(OC)c(OC)c3)nc2C)cc1	inactive
C/C(=N\NC(=S)NCc1ccccc1)C1CCCCC1	inconclusive: 22.4 µM [inhibitor, partial curve]
Cc1ccc(C(=O)COC(=O)CNC(=O)Cc2ccccc2)cc1	inconclusive: 17.8 µM [inhibitor, partial curve]
CC1CCCCN1C(=O)c1ccc2c(c1)N(Cc1ccc(Cl)cc1)C(=O)c1ccccc1S2=O (centres undefined)	inconclusive: 3.55 µM [inhibitor, full curve]
CCCc1ccc(-c2c(C)sc(N)c2C#N)cc1	active: 35.5 µM
CN(C1CCCCC1)S(=O)(=O)c1ccc(F)c(C(=O)Nc2ccc(C(F)(F)F)cc2)c1	inactive
C1CCC(Nc2nnnn2C2CCCCC2)CC1	inactive
Cc1ccc(C)c(NC(=O)CCC(=O)NN=C2CCCC2)c1	inconclusive: 12.6 µM [inhibitor, partial curve]

Structure (SMILES)	Potency
NNC(=O)c1cc2c(s1)CCCCCC2	inconclusive: 35.5 µM [inhibitor, partial curve]
COc1ccc(C2=NCN(c3ccc(C)cc3)C(=S)N2)cc1	inactive
CCN(CC)c1ccc(/C=N/O)cc1	inconclusive: 25.1 µM [inhibitor, partial curve]
Cc1cccc(C(=O)N2CCN(c3ccc(C(F)(F)F)cn3)CC2)c1C	inconclusive: 31.6 µM [inhibitor, single point]
COc1ccc(-c2nc3ncccc3n2O)cc1	inactive
COc1ccc(CCNC(=O)c2ccc3c(Cl)c4c(nc3c2)CCCC4)cc1OC	inconclusive: 31.6 µM [inhibitor, partial curve]
O=C(CN1CCN(c2ccccn2)CC1)Nc1ccc(Oc2ccccc2)cc1	inconclusive: 14.1 µM [inhibitor, partial curve]
O=S(=O)(NC1CCCCCCC1)c1ccccc1	inconclusive: 20 µM [inhibitor, partial curve]
COc1cccc(NC(=O)CCc2nc(-c3ccccc3F)no2)c1	inconclusive: 25.1 µM [inhibitor, partial curve]
CC(=O)Nc1ncc(Cc2ccc(Cl)cc2Cl)s1	inconclusive: 11.2 µM [inhibitor, partial curve]
C=CCn1c(SCC(=O)Nc2ccc3c(c2)OCCO3)nnc1-c1ccccn1	inconclusive: 22.4 µM [inhibitor, partial curve]
CCOC(=O)N1CCN(S(=O)(=O)c2ccc(C(=O)N(CCCN(C)C)c3nc4ccc(CC)cc4s3)cc2)CC1	inconclusive: 28.2 µM [inhibitor, partial curve]
CCCCc1ccc(-c2nc(N)n[nH]2)cc1	inconclusive: 28.2 µM [inhibitor, partial curve]
CC1(C)C2CCC1(CS(=O)(=O)Nc1ccccc1)C(=O)C2 (centres undefined)	inconclusive: 12.6 µM [inhibitor, partial curve]
CC(C)CC(=O)N1CCN(S(=O)(=O)c2ccccc2)CC1	inactive
CN(C)c1ccc(N=Nc2ccccc2C(=O)OCC(=O)N(C)C2CCCCC2)cc1	inconclusive: 12.6 µM [inhibitor, partial curve]
CN(C)c1ccc(-c2nc3ccccc3n2C)cc1	inconclusive: 31.6 µM [inhibitor, partial curve]
Cc1ccc(-c2noc(-c3ccccc3Br)n2)cc1	inconclusive: 50.1 µM [inhibitor, single point]
CC(=O)Oc1ccc2ccccc2c1C(NC(=O)C(C)C)c1cccc([N+](=O)[O-])c1 (centres undefined)	inconclusive: 50.1 µM [inhibitor, single point]
COc1cc(C(=O)O[C@@H]2CC3CC[C@]2(C)C3(C)C)ccc1O	inconclusive: 35.5 µM [inhibitor, partial curve]
COc1ccc(S(=O)(=O)N2CCN(C(=O)c3ccco3)CC2)c(C)c1C	inactive
O=C(NCc1ccco1)c1ccc2c(=O)n(Cc3ccco3)c(SCC(=O)N3CCCC3)nc2c1	inconclusive: 20 µM [inhibitor, partial curve]
Cc1occc1C(=O)Nc1cccc(Cl)c1Cl	inconclusive: 31.6 µM [inhibitor, partial curve]

Structure (SMILES)	Potency
O=C(NC12CC3CC(CC(C3)C1)C2)c1cccc([N+](=O)[O-])c1	inconclusive: 28.2 µM [inhibitor, partial curve]
CC(C)N1CCc2c(sc(NC(=O)c3ccc(S(=O)(=O)N4CCCCC4C)cc3)c2C(N)=O)C1 (centres undefined)	inconclusive: 31.6 µM [inhibitor, partial curve]
Cc1ccc(O)c(NC(=O)CCC2CCCCC2)c1	inconclusive: 3.55 µM [inhibitor, full curve]
COCCNC(=S)N/N=C(\C)c1ccc(Cl)c(Cl)c1Cl	inactive
CCOc1ccc(N(C)S(=O)(=O)c2ccc(-c3cc(C)no3)s2)cc1	inconclusive: 31.6 µM [inhibitor, partial curve]
Cc1cc(S(=O)(=O)N2CCCC2)ccc1OCC(=O)NCc1ccccc1	inconclusive: 39.8 µM [inhibitor, single point]
CN1CCCN(Cc2ccc(Cl)cc2Cl)CC1	inconclusive: 56.2 µM [inhibitor, single point]
O=C(NC1CCN(Cc2ccccc2)CC1)c1cccc(OC(F)F)c1	inactive
COc1ccccc1C(=O)Nc1c(C(=O)c2ccccc2)oc2ccccc12	inactive
O=C(/C=C/c1ccc(Cl)c(C(F)(F)F)c1)N1CCN(c2ccccn2)CC1	inconclusive: 31.6 µM [inhibitor, single point]
CCCCCCCCCCCCCCCC[n+]1cccc2ccccc21	inconclusive: 50.1 µM [inhibitor, single point]
O=c1cc(CSc2ccccn2)[nH]c(=O)[nH]1	inconclusive: 31.6 µM [inhibitor, single point]
CCC(=O)Nc1ccc(NC(=S)NC(=O)/C=C/c2ccco2)cc1	inconclusive: 35.5 µM [inhibitor, single point]
CCN(CC)c1ccc(C2Nc3ccccc3-c3cc(C)nn32)cc1 (centres undefined)	inactive
O=C(NC12CC3CC(CC(C3)C1)C2)c1ccc([N+](=O)[O-])cc1	inconclusive: 20 µM [inhibitor, partial curve]
CC(=O)C1=C(O)C(=O)N(c2ccc(Br)cn2)C1c1ccccc1[N+](=O)[O-] (centres undefined)	inactive
O=C(CN1C(=O)NC2(CCOc3ccccc32)C1=O)Nc1cccc(Cl)c1 (centres undefined)	inconclusive: 25.1 µM [inhibitor, partial curve]
COc1cc2c(=O)n(Cc3ccco3)c(=O)n(CC(=O)c3cccc(Br)c3)c2cc1OC	inconclusive: 3.55 µM [inhibitor, full curve, poor fit]
C#CCSc1nnnn1-c1cccc(Cl)c1	inconclusive: 50.1 µM [inhibitor, single point]
COC(=O)/C(C#N)=C/c1c(N2CCCCCC2)nc2c(C)cccn2c1=O	inconclusive: 31.6 µM [inhibitor, single point]
COc1ccccc1C(CCN(Cc1cccs1)C(C)=O)c1ccco1 (centres undefined)	inconclusive: 39.8 µM [inhibitor, single point]
CC(C)(C)OC(=O)N1CCCC(C(=O)CC#N)C1 (centres undefined)	inconclusive: 22.4 µM [inhibitor, partial curve]
N#Cc1c(NC(=O)CSc2nnc(-c3ccncc3)n2CC2CCCO2)sc2c1CCCC2 (centres undefined)	inconclusive: 35.5 µM [inhibitor, partial curve, poor fit]
